Experimental data reported in PubChem BioAssay (NCI).
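Cells were grown in 96-well plates and exposed to each compound for 48 hours at five concentrations; endpoints were interpolated linearly between bracketing concentrations, or set to the highest concentration if not reached. Here, GI50 denotes the concentration required for 50% inhibition of growth. The concentration for full growth arrest is given as TGI.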

System: NCI-H322M lung
Assay: growth of human tumour cells (NCI), 48 h

CCO/C=N/C1=C(C#N)C(c2ccc(OC)cc2)c2sc3c(CC)cccc3c2O1 (configuration not stated)
GI50: 5.35 µM
TGI: 18.5 µM
